Test results from publication PMC4336329 (PLoS ONE, 2015).
Hit rate of the full screen: of about 310,000 compounds, about 2,200 (0.71%) showed an effect of 50% or more. The effect is printed as a negative number. Some of the results follow.

Target: human ether-à-go-go-related gene (hERG) potassium channel (human, UniProt Q12809)
Test: primary screen, population patch clamp on CHO cells stably expressing hERG

Sequence of human ether-à-go-go-related gene (hERG) potassium channel (Q12809 whole entry, looked up): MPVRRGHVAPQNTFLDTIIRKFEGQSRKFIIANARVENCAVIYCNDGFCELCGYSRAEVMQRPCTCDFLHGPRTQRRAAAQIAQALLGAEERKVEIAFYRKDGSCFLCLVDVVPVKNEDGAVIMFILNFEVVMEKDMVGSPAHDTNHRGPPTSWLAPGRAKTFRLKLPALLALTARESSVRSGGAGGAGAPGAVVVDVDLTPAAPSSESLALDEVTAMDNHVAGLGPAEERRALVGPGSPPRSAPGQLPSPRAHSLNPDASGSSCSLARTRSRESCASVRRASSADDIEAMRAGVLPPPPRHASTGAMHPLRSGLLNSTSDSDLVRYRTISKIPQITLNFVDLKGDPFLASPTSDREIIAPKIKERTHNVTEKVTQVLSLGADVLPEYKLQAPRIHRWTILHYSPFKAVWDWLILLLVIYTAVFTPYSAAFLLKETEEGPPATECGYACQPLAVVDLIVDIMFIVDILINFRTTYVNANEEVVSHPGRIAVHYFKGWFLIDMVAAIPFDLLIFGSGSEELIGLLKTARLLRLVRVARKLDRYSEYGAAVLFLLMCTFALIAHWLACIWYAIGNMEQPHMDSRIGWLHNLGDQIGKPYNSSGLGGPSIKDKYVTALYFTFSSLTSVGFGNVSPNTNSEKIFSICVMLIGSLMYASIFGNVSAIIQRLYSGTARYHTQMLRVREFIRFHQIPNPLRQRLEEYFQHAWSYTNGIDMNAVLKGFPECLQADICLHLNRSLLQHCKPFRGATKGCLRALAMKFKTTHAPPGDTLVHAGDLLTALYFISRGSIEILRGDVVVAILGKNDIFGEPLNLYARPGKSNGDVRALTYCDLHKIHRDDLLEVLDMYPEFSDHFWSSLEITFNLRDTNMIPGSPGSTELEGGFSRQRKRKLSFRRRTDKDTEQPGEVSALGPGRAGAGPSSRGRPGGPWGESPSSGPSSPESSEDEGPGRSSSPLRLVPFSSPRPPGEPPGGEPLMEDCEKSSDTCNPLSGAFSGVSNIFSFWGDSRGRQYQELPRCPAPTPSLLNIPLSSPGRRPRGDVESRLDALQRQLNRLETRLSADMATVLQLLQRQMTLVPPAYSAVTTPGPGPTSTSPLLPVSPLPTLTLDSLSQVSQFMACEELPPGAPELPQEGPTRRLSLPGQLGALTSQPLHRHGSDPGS

Q: Which “hERG current change (%, negative = inhibition) at 1uM” value does the source give for `c1cncc(COC2CCCN(Cc3nc(-c4cccs4)no3)C2)c1` (stereo not drawn) here?
A: 15.7%

Q: For `COC(=O)C(CC(=O)c1ccc(Cl)cc1)c1ccc(C)cc1` (stereo not drawn), which “hERG current change (%, negative = inhibition) at 1uM” value is on record?
A: 12.7%

Q: With `CN(C)CCN(Cc1ccco1)S(=O)(=O)c1csc(C(N)=O)c1` as the compound, how does the “hERG current change (%, negative = inhibition) at 1uM” value read?
A: 16.9%

Q: `COC(=O)c1ccccc1NC(=O)Cn1c(=O)n(CCC(=O)NC2CCN(Cc3ccccc3)CC2)c(=O)c2ccccc21` was tested. Which “hERG current change (%, negative = inhibition) at 1uM” value did it give?
A: 1.13%

Q: Which “hERG current change (%, negative = inhibition) at 1uM” value does the source give for `N/C(=N\OC(=O)c1cc([N+](=O)[O-])ccc1Cl)c1ccccn1` here?
A: 15.2%

Q: For `CN(C(=O)COc1ccccc1C(=O)NCCc1ccccc1)c1ccccc1`, which “hERG current change (%, negative = inhibition) at 1uM” value is on record?
A: 4.39%

Q: Which “hERG current change (%, negative = inhibition) at 1uM” value does the source give for `COc1ccc(NC(=O)N(Cc2cc3ccc(OC)cc3[nH]c2=O)CC2CCCO2)cc1` (stereo not drawn) here?
A: -10.1%

Q: With `CCOC(=O)N1CCN(C(=O)CNC2CCCCCCC2)CC1.O=C(O)C(=O)O` as the compound, how does the “hERG current change (%, negative = inhibition) at 1uM” value read?
A: 18.3%

Q: For `Cc1cccc(C)c1NC(=O)CSc1nc(-c2ccco2)cc(C(F)(F)F)n1`, which “hERG current change (%, negative = inhibition) at 1uM” value is on record?
A: 3.71%

Q: How did the “hERG current change (%, negative = inhibition) at 1uM” value turn out when `C=CCn1c(COc2ccc(Cl)cc2)nnc1SCC(=O)N/N=C/c1cccc(O)c1` was run?
A: 4.13%

Q: With `CC1(OC(=O)c2cccs2)C(=O)C=C2C=C3CCCN3C=C2C1=O` (stereo not drawn) as the compound, how does the “hERG current change (%, negative = inhibition) at 1uM” value read?
A: 14.9%

Q: `Nc1nonc1-n1nnc(C(=O)N/N=C/c2cccnc2)c1-c1ccccc1` was tested. Which “hERG current change (%, negative = inhibition) at 1uM” value did it give?
A: 9.49%

Q: With `CCOC(=O)C(CCCOc1cccc(OC)c1)C(=O)OCC` as the compound, how does the “hERG current change (%, negative = inhibition) at 1uM” value read?
A: -9.15%

Q: Which “hERG current change (%, negative = inhibition) at 1uM” value does the source give for `Fc1cccc(Cl)c1CSc1nnc(CN2CCOCC2)n1-c1ccccc1` here?
A: 13.4%

Q: How did the “hERG current change (%, negative = inhibition) at 1uM” value turn out when `COc1ccccc1N(CC(=O)NCc1ccc(F)cc1)C(=O)CCC(=O)Nc1ccccn1` was run?
A: 6.44%

Q: How did the “hERG current change (%, negative = inhibition) at 1uM” value turn out when `CC(C)(C)c1ccc(/C=C/C(=O)N2CCc3ccccc3C2)cc1` was run?
A: 11%

Q: `O=C(CNC(=O)c1ccccc1)OCc1ccc([N+](=O)[O-])cc1` was tested. Which “hERG current change (%, negative = inhibition) at 1uM” value did it give?
A: 2.81%

Q: How did the “hERG current change (%, negative = inhibition) at 1uM” value turn out when `COC(=O)c1ccc(NC(=O)c2cccc(NC(=O)c3ccco3)c2)cc1` was run?
A: 5.26%

Q: With `CC(C)(C)CC(=O)Nc1cc2c3c(c1)CCN3C(=O)CC2` as the compound, how does the “hERG current change (%, negative = inhibition) at 1uM” value read?
A: 4.67%

Q: With `CCOCCc1nnc(NC(=O)c2cccc(F)c2)s1` as the compound, how does the “hERG current change (%, negative = inhibition) at 1uM” value read?
A: 7.75%

Q: `CCCS(=O)(=O)NCCc1cc2cc(C)c(C)cc2[nH]c1=O` was tested. Which “hERG current change (%, negative = inhibition) at 1uM” value did it give?
A: 2.88%

Q: Which “hERG current change (%, negative = inhibition) at 1uM” value does the source give for `CNC(C)C#Cc1ccc2sc3cccc(OC)c3c(=O)c2c1` (stereo not drawn) here?
A: 12.5%

Q: Which “hERG current change (%, negative = inhibition) at 1uM” value does the source give for `CCCN1C(=O)/C(=C/c2ccc(C)s2)SC1=Nc1ccc(OC)cc1` here?
A: 7.6%

Q: For `Cc1c(C(=O)Nc2ccccc2C(=O)N2CCCC2)cccc1[N+](=O)[O-]`, which “hERG current change (%, negative = inhibition) at 1uM” value is on record?
A: 14.9%

Q: `Cl.c1ccc2c(c1)oc1c(NCCCN3CCOCC3)ncnc12` was tested. Which “hERG current change (%, negative = inhibition) at 1uM” value did it give?
A: 0.229%

Q: Which “hERG current change (%, negative = inhibition) at 1uM” value does the source give for `CC(C)Oc1cc(NC(=O)CSCC(=O)Nc2cccc(C(F)(F)F)c2)c(Cl)cc1Cl` here?
A: 9.83%

Q: How did the “hERG current change (%, negative = inhibition) at 1uM” value turn out when `CCCc1nnc(NC(=O)CCC(=O)N2CCN(c3ccccn3)CC2)s1` was run?
A: -6.55%

Q: How did the “hERG current change (%, negative = inhibition) at 1uM” value turn out when `COc1ccc(-c2coc3cc(OC4OC(CO)C(O)C(O)C4O)cc(O)c3c2=O)cc1` (stereo not drawn) was run?
A: 7.95%

Q: For `CCCCCCOC(=O)C1=C(C)NC(=O)NC1c1ccc2c(c1)OCO2` (stereo not drawn), which “hERG current change (%, negative = inhibition) at 1uM” value is on record?
A: 2.22%

Q: Which “hERG current change (%, negative = inhibition) at 1uM” value does the source give for `O=S(=O)(N/N=C1\CCCc2ccccc21)c1ccccc1` here?
A: 5.16%

Q: Which “hERG current change (%, negative = inhibition) at 1uM” value does the source give for `Cc1cc(C)nc(NS(=O)(=O)c2ccccc2)n1` here?
A: 12.5%

Q: `O=C(OCC(=O)N1CCCC1)c1c2c(nc3ccccc13)CCCCC2` was tested. Which “hERG current change (%, negative = inhibition) at 1uM” value did it give?
A: 9.48%

Q: Which “hERG current change (%, negative = inhibition) at 1uM” value does the source give for `COC(=O)CNC(=O)C(Cc1ccccc1)NS(=O)(=O)c1ccc2c(c1)c(=O)n(C)c(=O)n2C` (stereo not drawn) here?
A: 9.49%

Q: Which “hERG current change (%, negative = inhibition) at 1uM” value does the source give for `COc1ccc(CCNC/C=C/c2ccccc2)cc1.Cl` here?
A: -5.16%

Q: How did the “hERG current change (%, negative = inhibition) at 1uM” value turn out when `O=c1cc(CN2CCN(Cc3ccc(F)cc3)C(CCO)C2)[nH]c2ccccc12` (stereo not drawn) was run?
A: -15.5%

Q: How did the “hERG current change (%, negative = inhibition) at 1uM” value turn out when `CCOc1c2ccccc2nn1CCOC` was run?
A: 8.94%

Q: `Cc1ccccc1OCCC(=O)NCCc1ccc(S(N)(=O)=O)cc1` was tested. Which “hERG current change (%, negative = inhibition) at 1uM” value did it give?
A: 14.6%

Q: Which “hERG current change (%, negative = inhibition) at 1uM” value does the source give for `CCOC(=O)c1sc(=S)n(-c2ccccc2Cl)c1C` here?
A: 13.1%

Q: `Cc1cccc(NC(=O)CNCC(=O)Nc2cccc(C)c2C)c1C.Cl` was tested. Which “hERG current change (%, negative = inhibition) at 1uM” value did it give?
A: 4.83%

Q: `COc1ccc2[nH]cc(CCNC(=O)C3CCCNC3=O)c2c1` (stereo not drawn) was tested. Which “hERG current change (%, negative = inhibition) at 1uM” value did it give?
A: 10.6%

Q: With `Cc1cc(O)ccc1N/C=C1\CCCC1=O` as the compound, how does the “hERG current change (%, negative = inhibition) at 1uM” value read?
A: 13%

Q: `Cc1ccc(N(CC(=O)NCc2ccco2)C(=O)CCC(=O)Nc2ccccn2)c(C)c1` was tested. Which “hERG current change (%, negative = inhibition) at 1uM” value did it give?
A: 8.23%

Q: For `NC(=O)CS(=O)(=O)c1ccc(Cl)cc1`, which “hERG current change (%, negative = inhibition) at 1uM” value is on record?
A: 18.9%

Q: For `CCC(C)(C(=O)NC1CCCC1)N(C(=O)CNC(C)=O)c1ccc(C)cc1` (stereo not drawn), which “hERG current change (%, negative = inhibition) at 1uM” value is on record?
A: 9.08%

Q: Which “hERG current change (%, negative = inhibition) at 1uM” value does the source give for `O=C(C1CCCN1S(=O)(=O)c1ccc(Cl)cc1)N1CCCCC1` (stereo not drawn) here?
A: 5.42%
